# Source: publication PMC6078952
# Sequences of proteins named here, by UniProt entry; tags and fusion partners are left off. A change or cut given only in a name is not applied to a line headed by its entry. A line that says so, or that is headed by a name, gives the form on record, which may keep a tag or linker.
# Lysyl oxidase propeptide (LOX-PP) (Pro24Leu) (P28300, form named): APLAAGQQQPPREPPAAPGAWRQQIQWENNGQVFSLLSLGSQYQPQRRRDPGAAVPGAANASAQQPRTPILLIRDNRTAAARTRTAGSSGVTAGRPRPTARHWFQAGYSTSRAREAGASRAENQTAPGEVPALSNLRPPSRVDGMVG
# UniProt P02452: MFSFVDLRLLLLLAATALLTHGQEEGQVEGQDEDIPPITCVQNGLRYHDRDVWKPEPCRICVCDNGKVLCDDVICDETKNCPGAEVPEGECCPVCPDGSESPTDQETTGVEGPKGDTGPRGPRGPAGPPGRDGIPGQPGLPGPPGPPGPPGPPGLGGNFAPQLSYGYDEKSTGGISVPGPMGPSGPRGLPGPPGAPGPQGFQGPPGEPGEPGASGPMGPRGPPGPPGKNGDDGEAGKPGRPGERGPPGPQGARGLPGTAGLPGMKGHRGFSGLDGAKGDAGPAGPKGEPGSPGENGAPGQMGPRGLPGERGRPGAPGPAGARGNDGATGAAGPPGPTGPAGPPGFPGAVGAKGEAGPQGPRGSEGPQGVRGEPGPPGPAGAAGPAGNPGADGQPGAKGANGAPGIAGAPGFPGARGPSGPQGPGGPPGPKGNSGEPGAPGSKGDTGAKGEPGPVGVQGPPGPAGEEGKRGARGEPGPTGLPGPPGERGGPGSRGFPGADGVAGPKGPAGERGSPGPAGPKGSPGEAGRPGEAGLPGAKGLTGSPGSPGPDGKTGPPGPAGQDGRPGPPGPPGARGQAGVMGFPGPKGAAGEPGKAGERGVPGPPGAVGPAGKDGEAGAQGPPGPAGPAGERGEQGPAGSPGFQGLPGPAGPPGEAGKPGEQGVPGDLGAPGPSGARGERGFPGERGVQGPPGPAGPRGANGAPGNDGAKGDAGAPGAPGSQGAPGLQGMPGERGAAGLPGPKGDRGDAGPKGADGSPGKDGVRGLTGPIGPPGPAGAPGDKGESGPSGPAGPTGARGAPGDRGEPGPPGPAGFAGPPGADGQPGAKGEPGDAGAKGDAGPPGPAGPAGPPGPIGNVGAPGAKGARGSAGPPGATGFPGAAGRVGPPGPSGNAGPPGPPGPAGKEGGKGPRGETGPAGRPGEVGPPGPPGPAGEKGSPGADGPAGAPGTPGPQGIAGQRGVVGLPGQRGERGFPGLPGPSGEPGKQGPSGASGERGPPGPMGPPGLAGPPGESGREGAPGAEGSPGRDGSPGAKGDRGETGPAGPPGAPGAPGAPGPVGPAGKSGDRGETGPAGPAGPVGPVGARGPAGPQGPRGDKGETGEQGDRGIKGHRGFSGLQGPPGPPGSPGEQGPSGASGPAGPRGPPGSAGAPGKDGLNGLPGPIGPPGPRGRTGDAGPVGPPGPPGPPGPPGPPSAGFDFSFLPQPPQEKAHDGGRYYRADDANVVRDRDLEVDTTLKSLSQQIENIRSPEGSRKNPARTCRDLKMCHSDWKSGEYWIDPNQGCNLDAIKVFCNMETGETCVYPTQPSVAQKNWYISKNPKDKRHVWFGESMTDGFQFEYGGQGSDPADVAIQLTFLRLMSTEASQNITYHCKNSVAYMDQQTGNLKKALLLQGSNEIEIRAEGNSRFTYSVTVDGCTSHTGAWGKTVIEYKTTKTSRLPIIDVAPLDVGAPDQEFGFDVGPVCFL
# Results are given in words; binding and its absence hold for the method and conditions named. Some binding calls cover weakened binding; strength is not graded here.
# Target: Lysyl oxidase propeptide (LOX-PP) (Pro24Leu) (human) (UniProt P28300)
# Experiment: SPR; Biacore T100 or T200: LOX-PP as ligand, covalently immobilised on a CM5 chip via amino groups; partner injected as analyte at 30 µl/min for 3 min; HBS pH 7.4 with 0.05% P20, 25 °C; both purified
substance,measurement,value
Collagen I (from UniProt P02452 162-1218; P08123 80-1119) (complex),binding,binds
